Assay results: PMC4336329 (PLoS ONE, 2015)
Among all 310,000 compounds or so, about 14,000 (4.5%) showed an effect of 50% or more. Effects have a minus sign here. This is one part of the list.

target: human ether-à-go-go-related gene (hERG) potassium channel (human, UniProt Q12809); assay: primary screen, population patch clamp on CHO cells stably expressing hERG
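Note: peak tail current of the secondary pulse compared with the same well before compound.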

Chain of human ether-à-go-go-related gene (hERG) potassium channel (Q12809 whole entry, looked up): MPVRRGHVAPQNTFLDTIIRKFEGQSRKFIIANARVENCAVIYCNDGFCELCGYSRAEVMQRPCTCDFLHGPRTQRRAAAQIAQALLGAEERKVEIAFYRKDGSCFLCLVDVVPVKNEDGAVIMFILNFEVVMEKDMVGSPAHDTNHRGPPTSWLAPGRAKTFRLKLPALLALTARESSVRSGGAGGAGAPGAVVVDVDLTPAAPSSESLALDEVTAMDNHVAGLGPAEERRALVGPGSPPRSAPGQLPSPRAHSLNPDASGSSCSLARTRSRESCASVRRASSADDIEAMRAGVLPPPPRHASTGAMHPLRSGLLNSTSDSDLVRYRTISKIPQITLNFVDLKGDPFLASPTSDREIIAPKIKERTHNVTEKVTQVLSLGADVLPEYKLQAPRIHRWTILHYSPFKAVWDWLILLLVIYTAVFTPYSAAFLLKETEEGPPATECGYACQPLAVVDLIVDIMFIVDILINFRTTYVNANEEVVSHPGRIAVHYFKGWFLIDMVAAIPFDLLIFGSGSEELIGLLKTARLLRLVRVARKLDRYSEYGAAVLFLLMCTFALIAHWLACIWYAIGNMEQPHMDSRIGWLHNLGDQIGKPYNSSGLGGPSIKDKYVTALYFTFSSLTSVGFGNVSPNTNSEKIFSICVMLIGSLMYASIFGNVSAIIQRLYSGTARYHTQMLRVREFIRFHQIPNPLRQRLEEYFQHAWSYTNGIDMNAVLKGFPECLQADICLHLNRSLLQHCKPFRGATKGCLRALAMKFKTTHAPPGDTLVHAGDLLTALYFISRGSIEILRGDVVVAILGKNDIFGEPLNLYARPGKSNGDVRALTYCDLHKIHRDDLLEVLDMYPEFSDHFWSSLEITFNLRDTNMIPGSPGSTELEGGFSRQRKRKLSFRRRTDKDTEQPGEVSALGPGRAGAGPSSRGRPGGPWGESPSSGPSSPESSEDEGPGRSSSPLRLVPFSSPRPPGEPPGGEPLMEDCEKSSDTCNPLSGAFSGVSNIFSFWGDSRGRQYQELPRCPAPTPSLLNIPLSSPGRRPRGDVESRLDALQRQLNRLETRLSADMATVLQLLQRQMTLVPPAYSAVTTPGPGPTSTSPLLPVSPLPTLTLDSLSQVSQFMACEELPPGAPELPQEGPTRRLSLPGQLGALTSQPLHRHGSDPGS

Row | SMILES | hERG current change (%, negative = inhibition) at 10uM [%]
1 | CCOC(=O)C1/C(=N\O)CC(C)(O)C(C(=O)OCC)C1c1ccc(N(C)C)cc1 (centres unmarked) | 16
2 | O=C(COc1ccc(F)cc1)N(Cc1ccco1)C1CCS(=O)(=O)C1 (centres unmarked) | -28.4
3 | COc1ccc(/C=C/C(=O)NCCc2ccc(OC)c(OC)c2)cc1 | -10.1
4 | CSc1cccc(NS(=O)(=O)c2ccc(F)cc2)c1 | -8.72
5 | Cc1ccccc1C(=O)NNC(=O)c1cccn1C | 0.00628
6 | CC(C)(C)c1ccc(Oc2ccc(NC(=O)C3CC=CCC3C(=O)O)cc2)cc1 (centres unmarked) | -3.95
7 | CC(OC(=O)c1cn(-c2ccccc2)nc1-c1cccnc1)C(N)=O (centres unmarked) | -10.1
8 | Cc1cc(NS(=O)(=O)c2ccc(NC(=O)N[C@H](C(=O)O)C(C)C)cc2)no1 | 29.3
9 | CCCCC1=CC2=C(c3ccco3)C(=O)C(C)(OC(=O)c3ccc(OC)cc3)C(=O)C2=CN1c1ccccc1 (centres unmarked) | 13.4
10 | COC(=O)/C=c1/sc2n(c1=O)CCN=2 | 6.33
11 | CC(C)CCNC(=O)CCc1nnc(Cc2c[nH]c3ccccc23)o1 | 12.6
12 | c1cncc(-c2cnc3ccccc3c2)c1 | 8.02
13 | Cc1nc(-c2ccccc2)sc1C1(C)CC(c2ccc([N+](=O)[O-])cc2)=NO1 (centres unmarked) | 3.94
14 | O=C(CN1C(=O)/C(=C/c2ccccc2)Sc2ccccc21)NCCCN1CCOCC1 | -42.8
15 | Cc1ccc(NS(=O)(=O)c2cc(Br)cnc2N)cc1C | -27.3
16 | COc1ccc(OC)c(CN2CCC(C(=O)N(C)CCc3ccc(OC)c(OC)c3)CC2)c1.O=C(O)C(=O)O | -11.5
17 | Cc1nc(NC(=O)c2cccc(Cl)c2)sc1C(=O)N1CCCCC1 | 8.92
18 | Cc1c(C(=O)Nc2ccccc2-c2ccccc2)cccc1[N+](=O)[O-] | -30.4
19 | COc1cccc(N2C(=O)CC(N3CCC(C(N)=O)(N4CCCCC4)CC3)C2=O)c1 (centres unmarked) | -2.64
20 | CC(=O)CSc1nc2cc3c(cc2cc1C#N)OCCO3 | 8.69
21 | CC#CCN1c2ccccc2[C@]23C[C@@H](C(=O)OC)N(C(C)=O)C2=NC(C(=O)OC)=C(C(=O)OC)[C@H]13 | -1.39
22 | CCN(CC)S(=O)(=O)c1ccc2nc(CCl)[nH]c2c1 | -16.7

Row | SMILES | hERG current change (%, negative = inhibition) at 10uM [%]
23 | O=C(NC1CCCC1)C1CCC(CNS(=O)(=O)c2cccs2)CC1 (centres unmarked) | -5.73
24 | O=[N+]([O-])c1ccc(F)cc1F | 15.4
25 | O=C(COc1ccc(Cl)cc1)Nc1ccc(NC(=O)c2ccco2)cc1 | 13.4
26 | CC1Cc2ccccc2N1C(=O)COC(=O)c1cc(Br)ccc1O (centres unmarked) | 0.761
27 | Cc1cc2c(cc1C)C(c1cc(Br)ccc1F)CC(=O)N2 (centres unmarked) | 8.78
28 | CC1=C(C(=O)NC(C)c2ccccc2)C2(CCC(C)CC2)OC1=O (centres unmarked) | -4.71
29 | Cc1oc(CN2CCOCC2)cc1C(=O)O | 20.2
30 | O=C(Nc1ccc2c(c1)OCO2)O[C@@H]1C[C@H]2CCCC(=O)N3CC[C@@H](C1)[C@@H]23 | 11.4
31 | COc1ccc(NC(=O)NC2CCCc3ccccc32)c(OC)c1 (centres unmarked) | 13.3
32 | Cc1[nH]c2ccccc2c1C(=O)COC(=O)c1c(-c2ccccc2Cl)noc1C | -8.21
33 | Cc1ccccc1-c1noc(CCC(=O)NCc2ccco2)n1 | -2.05
34 | Cc1cccc2c1cnn2C(=O)Nc1ccc(Br)cc1F | 27.8
35 | CCCCCC1=NN2C(=O)CC(=O)N=C2S1 | -13.8
36 | COc1ccccc1N1CCN(CC(=O)Nc2sccc2C#N)CC1 | -13.5
37 | C=CCNC(=O)c1onc(CSc2ccccc2CC)c1C(=O)O | 3.21
38 | O=C(Nc1nnc(COc2ccc(Br)cc2)s1)c1ccco1 | 21.9
39 | CCOc1ccc(NC(=O)CC2C(=O)N(C)C(=S)N2Cc2ccco2)cc1 (centres unmarked) | -41.8
40 | CC(=O)O.COc1ccc(OC)c(C2CC(=O)C(C)C(c3cc(OC)ccc3OC)N2)c1 (centres unmarked) | 15.7
41 | CCn1cc(C(=O)O)c(=O)c2cc(F)c(N3CCN(C(=S)NC(=O)c4ccc(F)cc4)CC3)cc21 | -2.02
42 | CC(C)c1ccc(NC(=O)CSC(C)c2nc3ccccc3c(=O)[nH]2)cc1 (centres unmarked) | -2.85
43 | COC(=O)c1ccc(OCC(O)Cn2nnc3ccccc32)cc1 (centres unmarked) | -6.79
44 | O=S(=O)(c1c(F)cccc1F)N1CCCC2CCCCC21 (centres unmarked) | -2.32

Row | SMILES | hERG current change (%, negative = inhibition) at 10uM [%]
45 | CN(C)c1ccc(/C=N/NC(=O)CCC(=O)NCc2ccccc2)cc1 | 11.3
46 | O=C(Nc1ccccc1C(=O)O)c1ccc2c(c1)C(=O)N(c1cccc([N+](=O)[O-])c1)C2=O | 12
47 | O=C1COc2ccc(OCc3ccc(F)cc3)cc21 | -6.89
48 | CCn1ccnc1CNC(=O)c1ccc2oc(CCCc3ccccc3)nc2c1 | -45.4
49 | COc1cc(/C=N/NC(=O)c2ccc(CSc3nncn3C)cc2)ccc1OCC(=O)N1CC(C)OC(C)C1 (centres unmarked) | -0.599
50 | Cc1ccc2c(c1)N(CC(=O)Nc1ncccc1C)C(=O)C(C(C)C)O2 (centres unmarked) | 14.4
51 | COc1ccccc1N(CC(=O)NCCc1ccccc1)C(=O)CCC(=O)Nc1ccccn1 | -13.9
52 | COC(=O)C1=CO[C@@H](C)[C@@H]2CN(CCc3c[nH]c4ccccc34)CC[C@H]12 | -57
53 | COc1ccc(C2c3[nH]c4ccccc4c3CCN2C(=O)c2ccc(=O)n(C)n2)c(F)c1 (centres unmarked) | -1.88
54 | Cc1ccc(CC(=O)NCCS(=O)c2ccc(Cl)cc2)cc1 (centres unmarked) | -13.5
55 | O=C1NC(=Nc2cccc(Cl)c2)SC1Cc1cccc(Cl)c1Cl (centres unmarked) | 13
56 | O=C1C2C3C=CC(CC3)C2C(=O)N1c1ccc(Cl)cc1 (centres unmarked) | 16.7
57 | Cc1ccc(OCc2cc(C(=O)NCc3cn4ccccc4n3)no2)cc1C | -38.7
58 | COc1ccc(CN2C3CCCC2CC(NC(=O)Nc2ccccc2C)C3)cc1 (centres unmarked) | -59
59 | CC1CCCN(C(=O)C2CCN(CC3CC=CCC3)CC2)C1.O=C(O)C(=O)O (centres unmarked) | -18.7
60 | CNC(=S)N/N=C/c1cc(C)ccc1C | 20.7
61 | C/C(Cl)=C\Cn1c(N2CCCCCC2)nc2c1c(=O)n(C)c(=O)n2C | -7.56
62 | COc1cccc(N(C(=O)c2snc(C(N)=O)c2N)C(C(=O)NCC2CCCO2)c2cccs2)c1 (centres unmarked) | 7.78
63 | Cc1ccc(S(=O)(=O)N2CCC(=O)N(CCOCc3cccc(C)c3)CC2)cc1 | -23.1
64 | O=C(Nc1ccc(C(=O)O)c(O)c1)c1ccccc1 | 8.92
65 | CCCCCCNC(=O)c1ncn[nH]1 | 29.8
66 | O=C(NCc1ccccc1)C(c1ccc(O)cc1)N(C(=O)Cn1nnc(-c2cccs2)n1)c1ccc2c(c1)OCCO2 (centres unmarked) | 1.78

Row | SMILES | hERG current change (%, negative = inhibition) at 10uM [%]
67 | Cn1c(=O)[nH]c(=O)c2c1nc(N1CCC(Cc3ccccc3)CC1)n2Cc1ccccc1 | 5.25
68 | Cc1ccc(-c2c(C(=O)N/N=C/c3ccncc3)nnn2-c2nonc2N)cc1 | 15.3
69 | O=C(Cn1ncc2c3ccccc3n(Cc3ccccc3)c2c1=O)NCc1ccccn1 | 9.2
70 | COc1ccc(CC(=O)N(C)CC(=O)Nc2ccc(F)cc2)cc1S(=O)(=O)N1CCOCC1 | -7.03
71 | CCC1SC(N)=NC1=O (centres unmarked) | 8.1
72 | COc1ccc(OC)c(N(CC(=O)Nc2cccnc2)S(=O)(=O)c2ccc(OC)c(OC)c2)c1 | -17.9
73 | C=CCOc1cccc(C2/C(=C(/O)c3ccc(C)cc3)C(=O)C(=O)N2CCN2CCOCC2)c1 (centres unmarked) | -8.04
74 | CCOC(=O)N1CCC(NC(=O)CN2C(=O)COc3ccc(C(C)(C)C)cc32)CC1 | -15
75 | CCCCn1c(SCC(=O)Nc2nnc(C)s2)nc2c1c(=O)n(C)c(=O)n2C | -12.4
76 | COC(=O)c1ccc(Cn2c(O)c(N=NC(N)=S)c3ccccc32)o1 | 15.9
77 | COc1ccc(-c2cn(-c3ccc(C)cc3)c(=O)n2CC(=O)Nc2cccc(F)c2)cc1 | 15.6
78 | COC(=O)C(O)(c1ccc(NC(=S)NC(=O)c2ccc(Cl)cc2Cl)cc1)C(F)(F)F (centres unmarked) | 5.05
79 | O=C(c1ccco1)N1N=C(c2ccc(Br)cc2)CC1c1ccco1 (centres unmarked) | 18.5
80 | COc1nc(-c2cccc([N+](=O)[O-])c2)nc2ccccc12 | 16.2
81 | CC(=O)c1ccccc1OC(=O)c1ccco1 | 2.25
82 | CCOc1ccc(NC(=O)C2C3CC/C=C\CCC32)cc1 (centres unmarked) | 9.01
83 | COc1ccc(S(=O)(=O)NNC(=O)c2cc3ccccc3o2)cc1 | 25.6
84 | O=C(Nc1ccc(-c2cn3ccccc3n2)cc1)c1ccc(Cl)cc1 | -3.32
85 | Cn1c(SCc2ccc([N+](=O)[O-])cc2)nc2c(c1=O)SCC2 | -67.5
86 | Cc1cc(NC(=S)Nc2cccc3ccccc23)n[nH]1 | 16.7
